# Laboratory results reported in the supplement of paper PMC3334620.
# Whole data set: some 33,000 sequences, median “E-score (-0.5 to 0.5)” near -0.017, cut for the highest 2% near 0.3. This is one part of the list.
# Target: T1, Sut1 (UniProt P53032)
# T1 sequence: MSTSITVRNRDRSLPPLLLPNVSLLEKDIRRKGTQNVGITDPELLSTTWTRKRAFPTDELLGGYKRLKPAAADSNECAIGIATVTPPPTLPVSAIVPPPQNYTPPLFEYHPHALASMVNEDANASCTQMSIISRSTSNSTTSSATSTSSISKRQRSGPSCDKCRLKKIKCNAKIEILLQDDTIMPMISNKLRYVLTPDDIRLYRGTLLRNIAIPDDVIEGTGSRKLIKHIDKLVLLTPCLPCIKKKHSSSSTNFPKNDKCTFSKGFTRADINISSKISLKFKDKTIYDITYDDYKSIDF
# Assay: PBM E-score (8-mer binding enrichment) (E-score (-0.5 to 0.5)); higher = stronger / more preferred TF binding; most listed sequences are background and not binding sites
# Conditions: protein concentration: 200 nM; construct: GST-full length
# Procedure, shortened: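 E-scores (a modified Wilcoxon-Mann-Whitney statistic) were assigned by the Universal PBM Analysis Suite to every ungapped eight-base word pooled with its reverse complement. The input came from universal all-10-mer Agilent arrays made double-stranded by primer extension and probed with GST-tagged yeast transcription factors at about 100-200 nM. Fluorescent anti-GST detected bound protein, and masliner normalised the scans.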
row,Sequence,PBM E-score
1,CAGGAAGA,-0.164
2,ACGTCTGA,-0.00497
3,ACATAGAG,-0.117
4,ACGGACCA,0.277
5,CTGACACC,0.00875
6,ACAATGCT,-0.0335
7,CTCCTATA,-0.215
8,ATCATATA,0.155
9,CCACAATC,-0.00875
10,AGTCCGGC,0.467
11,TAAGGACA,-0.133
12,GCACTTAC,-0.0542
13,GAACTGAA,0.115
14,CGTGCCTC,-0.122
15,GGCTTGCA,-0.0569
16,CGCTGACA,-0.0834
17,AGCCGAAA,0.149
18,CTCCCGTA,-0.185
19,GTGCTAAC,0.0604
20,AATTTACC,0.143
21,TGGATTAA,0.159
22,GGTAGAAC,-0.0775
23,GCCCCCAA,-0.255
24,ACATTGGT,0.113
25,GAGGTGGC,-0.203

row,Sequence,PBM E-score
1,ACTATAAG,0.141
2,AATGACTA,0.149
3,AAGATGAT,0.0993
4,CGACCGCA,-0.112
5,AGCTGTAG,0.0192
6,ATGTGGGG,-0.203
7,CCTAGCAA,-0.172
8,ACGTGACT,-0.0877
9,TGGTTCAA,0.00093
10,CCTCGCTC,-0.044
11,GACACGAC,-0.126
12,GATTCATA,0.0408
13,CAAAGAGG,-0.109
14,CTAGGAGC,-0.306
15,CAATAGCC,-0.0517
16,AATCGACT,-0.205
17,GAGTTGCA,0.032
18,CTCGAATA,-0.124
19,ATGCACCG,0.0411
20,AAAGAATT,0.12
21,CCGCACAA,-0.0899
22,AATCGTAG,0.111
23,CGTCCCAC,-0.0159
24,ACACGCGC,-0.069
25,CTAAGGCA,-0.163

row,Sequence,PBM E-score
1,AAGGTAGA,0.059
2,AGATTTAA,0.00422
3,GTTGACAA,0.0577
4,CTGCCCAA,-0.108
5,CACAGGTG,-0.162
6,AACTACCC,-0.211
7,ATACGTGC,-0.0324
8,TACAAGAA,0.234
9,GTAAGCAC,-0.0334
10,CCGGGCTA,0.0831
11,CTAGTCAC,-0.0858
12,CAGTGACC,-0.31
13,CCTGCAAA,-0.172
14,GCTACTGA,-0.00365
15,GAAAGAAA,0.294
16,GTAGGGTA,0.0553
17,AACGGTAA,-0.0227
18,ACTCCCGA,0.103
19,GTCCAGAC,-0.365
20,AGCTATCA,-0.0476
21,AGTCTACG,-0.0914
22,CAGGGTAG,-0.233
23,AGCAACAC,-0.00322
24,GGTCCACC,-0.175
25,AGCAAAAC,0.219

row,Sequence,PBM E-score
1,AATGATGC,0.0894
2,AATCAGTG,-0.0732
3,AGTTTGGG,0.129
4,AGCGGATC,0.0459
5,ATTGACGG,0.103
6,CGGTAGAA,-0.197
7,AACGTGAC,0.0748
8,CGGATTGA,0.0523
9,CCGTTAAG,-0.0615
10,TGCAATAA,0.124
11,GATCAGCC,-0.25
12,AAATTATG,0.175
13,CATGTCCC,-0.1
14,CGCATCTA,0.108
15,ACCCGCTA,-0.21
16,CGACACCC,-0.0331
17,ATTCTGTA,0.114
18,AGAAGTAA,0.236
19,CTGCCATC,-0.0539
20,AAGTGGTC,0.00377
21,GAGGTACC,-0.211
22,ACCTGGGA,-0.057
23,CAGTTTAA,0.13
24,ATACTTAA,0.188
25,TAATTCGA,0.0785

row,Sequence,PBM E-score
1,AATGCAAC,0.0416
2,CTTTTGGC,-0.0214
3,ATTTCAGC,0.137
4,CTGACATC,0.0186
5,ACATTAGT,-0.0431
6,GTAAGCAA,0.111
7,CCGCAGTA,-0.0898
8,AATACTTA,0.185
9,TACGAGGA,-0.0191
10,AGCTTTTC,0.076
11,AGAGGTCG,-0.0834
12,CTCGAGTA,-0.0175
13,AGGTTACG,-0.0332
14,CTTGTAAC,0.0858
15,GGCGCGCA,-0.0973
16,TCCTGCGA,-0.108
17,ATGCTTTA,-0.0185
18,CGGAGGTA,0.0546
19,GTCATCGA,-0.126
20,TCCGTCGA,0.269
21,CTCCTCAG,-0.122
22,CTTCCAGC,-0.209
23,TCGAAACA,0.114
24,ACCACCAG,-0.0837
25,GCCCTTAC,-0.117

row,Sequence,PBM E-score
1,CTATAAGA,0.0645
2,GCGGGCAC,-0.0559
3,ACTCGAGA,-0.063
4,CAGGGGCC,-0.381
5,GTAGACAC,0.0727
6,ACCGATGC,0.03
7,CAAGAGCG,-0.079
8,CCTGGGGA,-0.333
9,ATGACTAA,0.0921
10,GAATGCGC,0.116
11,CGGTGTGA,-0.00548
12,ATTGCCAA,-0.0503
13,ATATGATC,0.0896
14,AGAGCGGC,-0.125
15,GCCAAAGA,0.0153
16,GTGAAGCA,-0.123
17,ACAGGCAA,-0.0187
18,GACGGGTA,-0.25
19,CATAGGGC,-0.253
20,CATTCAGG,-0.122
21,AATGTGGA,0.0742
22,ACCAAGAT,0.0833
23,AGTGAAGG,-0.0451
24,ACCGTATG,-0.0163
25,CCACCAAA,-0.0079

row,Sequence,PBM E-score
1,GGGCCGAC,-0.0906
2,CCCATTAC,-0.173
3,GCTGCTAC,-0.223
4,GATACTGA,-0.0173
5,CGTTTACA,-0.0405
6,CCATCTAG,-0.0651
7,CTTGCTAA,-0.171
8,ACTCGGCG,0.0415
9,AAAACCCT,-0.171
10,CCATTCAC,-0.0529
11,CCGGGGCA,-0.0637
12,CCATGGGA,-0.219
13,AGCCCCAT,-0.229
14,CTTCCGTC,0.086
15,CCTGGGTA,-0.206
16,CATGAGAA,0.0161
17,ACCAACCA,-0.0123
18,CGTCGTTC,0.132
19,CAGGGACC,-0.24
20,AAGAAAGG,0.0877
21,AGCTTCAG,-0.191
22,AGAAAATG,0.163
